# Results reported in PubChem BioAssay AID1865 (National Center for Advancing Translational Sciences (NCATS), 2009).
# Hit rate of the full screen: of about 280,000 compounds, about 540 (0.19%) were called active. The inconclusive results got no clear call from the source; some entries with a clear call stand among them for comparison. The call rests on the fitted dose curve; in most records, active means well fitted activation curve with a large enough effect; inconclusive means small, poorly fitted or top-dose-only effect; inactive means flat fitted curve, though single readings scatter. Where the call is inconclusive, the potency comes from a doubtful curve fit.
# Assay: Quantitative High-Throughput Screen for Regulators of Epigenetic Control; further: nearly all actives have a fitted effect of over 60% in size; on GFP activation: % of control where 0% means no effect
# Settings: murine LDR cells, GFP reporter derepression, 30 h; GFP activation: at 53.9 µM (top of the series)
# Method in brief: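 Murine LDR cells carrying a silenced, genomically integrated CMV-driven GFP reporter were exposed to compound for 30 hours at 37 C. After PBS washes, GFP-positive cells (20–120 um objects) were counted by laser-scanning microplate cytometry.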
# Potency means the concentration at half of the fitted maximal effect; tags describe the fitted curve by direction and shape.
SMILES,Potency,GFP activation
CC(=O)Nc1ccccc1C(=O)N1CCc2ccccc21,"inconclusive: 1.58 µM [activator, partial curve, poor fit]",
O=C(CSC1=NCCN1)Nc1cccc(C(F)(F)F)c1,"inconclusive: 31.6 µM [activator, single point]",
Cc1ccc(NC(=O)c2cc(-c3ccc(C)o3)nc3ccccc23)nc1,"inconclusive: 20 µM [activator, single point]",
CC1(C)Cc2ccccc2C2CC(O)C(=O)N21 (stereo not given),"inconclusive: 31.6 µM [activator, single point]",
C=C(C)Cn1c(SCC(=O)Nc2ccccc2C)nc2sc3c(c2c1=O)CCCC3,"inconclusive: 35.5 µM [activator, single point]",
COc1ccc(-c2ccnc(-c3ccc(OCCCF)cc3)n2)cc1,,inactive: 5.94%
COc1ccccc1N1CCN(C(=O)c2cc3c(=O)n(C)c4ccccc4c3s2)CC1,"inconclusive: 35.5 µM [activator, single point]",
CCCCCC1CC(CC(=O)Nc2ccc([N+](=O)[O-])cc2)OC1=O (stereo not given),"inconclusive: 20 µM [activator, single point]",
COC(=O)c1cc(NC(=O)Nc2ccc3snnc3c2)cc(C(=O)OC)c1,,inactive: 8.06%
CCCCN1C(=O)c2[nH]nc(-c3ccccc3O)c2C1c1ccc(C(C)(C)C)cc1 (stereo not given),"inconclusive: 28.2 µM [activator, single point]",
c1ccc(NC2=Nc3cccc4cccc2c34)cc1,,inactive: -2.6%
COC(=O)[C@@]1(Cc2ccc(OC)cc2)[C@H]2c3cc(C(=O)N4CCCC4)n(Cc4ccc(OC)c(OC)c4)c3C[C@H]2CN1C(=O)c1ccccc1,"inconclusive: 20 µM [activator, single point]",
N#C/C(=C/c1ccc(Sc2nc3ccccc3[nH]2)o1)c1cccc(Br)c1,,inactive: -10.2%
O=C1NC(=S)N/C1=C\c1cccc([N+](=O)[O-])c1,,inactive: 16.8%
O=C(CSc1ccccn1)N1CCN(c2cccc(Cl)c2)CC1,"inconclusive: 28.2 µM [activator, single point]",
CC1=C(C(=O)Nc2ccccn2)C(c2cn(C)nc2C)C2=C(CCCC2=O)N1 (stereo not given),,inactive: 2.46%
O=C1/C(=C/c2ccncc2)CCC/C1=C\c1ccncc1,"inconclusive: 5.62 µM [activator, single point]",
CCS(=O)(=O)Nc1cccc(C2=NN(S(C)(=O)=O)C(c3ccccc3)C2)c1 (stereo not given),"inconclusive: 25.1 µM [activator, single point]",
CCn1c(SCC(=O)N/N=C/C=C/c2ccco2)nc2ccccc21,"inconclusive: 35.5 µM [activator, single point]",
COc1ccc(OCc2nnc(SCC(=O)N3CCCc4ccccc43)n2-c2ccc(C)cc2)cc1,,inactive: 1.47%
C[C@]12CC[C@@H]3c4cc(O)c(O)cc4CC[C@H]3[C@@H]1CC[C@@H]2O,,inactive: 9.59%
O=C(c1ccco1)N1CCN(C(=O)c2cccc3c2C(=O)N(C2CCCCC2)C3)CC1,"inconclusive: 12.6 µM [activator, partial curve]",
CCOC(=O)c1c(NC(=O)c2ccc(S(=O)(=O)N3CCC(C)CC3)cc2)sc2c1CCN(CC)C2,"inconclusive: 14.1 µM [activator, partial curve]",
COc1ccc(/C(O)=C2/C(=O)C(=O)N(CCN3CCOCC3)C2c2ccccn2)cc1OC (stereo not given),,inactive: -1%

SMILES,Potency,GFP activation
CCC(=O)Nc1cccc(C(=O)/C=C/c2ccccc2)c1,"inconclusive: 31.6 µM [activator, single point]",
OCCCn1c(-c2ccccc2)csc1=Nc1ccccc1,,inactive: 0.905%
Cc1ccc(-c2nc(C=Nc3ccc(O)cc3)c(O)o2)cc1,"inconclusive: 35.5 µM [activator, single point]",
CC(=O)c1cccc(NC(=S)NC(=O)c2ccc(C)cc2Cl)c1,,inactive: -5.09%
O=C1c2ccccc2C(=O)N1OS(=O)(=O)c1ccccc1,"inconclusive: 20 µM [activator, single point]",
CCOC(=O)N1CCc2c(sc3c2c(=O)n(Cc2ccccc2)c(=O)n3CC(=O)Nc2ccc(C)cc2C)C1,,inactive: 2.9%
COc1cc(/C=C2\SC(=S)N(NS(=O)(=O)c3ccccc3)C2=O)cc(OC)c1OC,,inactive: 0.104%
Cc1cc2c(cc1C)NC(CC(=O)Nc1cccc(Cl)c1)C(=O)N2 (stereo not given),,inactive: -0.754%
CCOC(=O)N1C/C(=C\c2ccccc2)C(=O)/C(=C/c2ccccc2)C1,"inconclusive: 5.62 µM [activator, single point]",
COc1ccc(-c2nnc(NC(=O)c3ccc(F)cc3)o2)cc1,,inactive: 4.62%
Cc1ccc(C(=O)/C=C/c2c[nH]c3ccccc23)cc1,"inconclusive: 35.5 µM [activator, single point]",
Cc1ccc(-c2onc3ccc(C=O)cc23)cc1,,inactive: -3.1%
Cc1ccccc1C(=O)O/N=C1\CCS(=O)(=O)c2sccc21,"inconclusive: 35.5 µM [activator, single point]",
O=C(NCCCN1CCOCC1)c1cc(-c2cccs2)on1,active: 14.1 µM,
COc1ccc(NC(=O)c2cc(S(=O)(=O)N3CCCCCC3)cn2C)cc1Cl,"inconclusive: 17.8 µM [activator, single point]",
O=C(Cn1cnc2c(oc3ccccc32)c1=O)Nc1ccc(OC(F)(F)F)cc1,"inconclusive: 25.1 µM [activator, single point]",
Cc1ccccc1-n1c(C)cc(/C=N/Nc2ccc([N+](=O)[O-])cn2)c1C,,inactive: 0%
Cc1coc(NC(=O)CSc2nc(-c3ccc(Cl)cc3)cc(C(F)(F)F)c2C#N)n1,"inconclusive: 3.55 µM [activator, single point]",
Cc1[nH]n(-c2ccccc2)c(=O)c1C=Nc1ccc2[nH]c(=O)[nH]c2c1,"inconclusive: 35.5 µM [activator, single point]",
CC(=O)c1cccc(NC(=O)COC(=O)[C@@H](NC(=O)OCc2ccccc2)C(C)C)c1,,inactive: 0%
CN(C)c1ccc(C2C=C(c3ccccc3)Nc3nnnn32)cc1 (stereo not given),,inactive: 9.26%
CCc1ccc2c(c1)C1(NN=C(c3ccc(C)cc3)S1)C(=O)N2 (stereo not given),"inconclusive: 31.6 µM [activator, single point]",
CCn1c2ccccc2c2cc(/C=N/n3c(-c4cc(C)[nH]n4)n[nH]c3=S)ccc21,,inactive: 1.2%
COC(=O)c1ccc(NC(=O)CC2C(=O)N(c3ccc(Cl)cc3)C(=O)N2Cc2ccco2)cc1 (stereo not given),,inactive: -1.79%

SMILES,Potency,GFP activation
COc1ccc(C(=O)Nc2cccc(OCc3cc(=O)n4c5c(sc4n3)CCCC5)c2)cc1,"inconclusive: 35.5 µM [activator, single point]",
COc1ccc(/C=C(\C#N)c2nc(-c3cc4c(ccc5ccccc54)oc3=O)cs2)cc1O,active: 12.6 µM,
O=C(O)c1ccccc1NC(=S)NC(=O)c1sc2ccccc2c1Cl,,inactive: 2.49%
COc1cccc(C(=O)c2cn(CC(=O)NCc3ccccc3)c3nc(C)ccc3c2=O)c1,"inconclusive: 31.6 µM [activator, single point]",
Cc1nn2c(-c3ccco3)ccnc2c1-c1ccc(F)cc1,"inconclusive: 31.6 µM [activator, single point]",
O=C(CCSc1ccccc1)NCCSCc1ccco1,,inactive: -0.862%
CC(C)(C)c1ccc(C(=O)Nc2ccc(C=C(C#N)C#N)cc2)cc1,"inconclusive: 17.8 µM [activator, single point]",
Oc1cccc2ccc(/C=C/c3cccs3)nc12,"inconclusive: 35.5 µM [activator, single point]",
COc1ccc(Br)cc1C(C[N+](=O)[O-])c1c(N)n(C)c(=O)n(C)c1=O (stereo not given),"inconclusive: 3.98 µM [activator, single point]",
C=CCc1ccc(OCC(O)CN2CCN(Cc3ccccc3)CC2)c(OC)c1 (stereo not given),"inconclusive: 35.5 µM [activator, single point]",
OC1CCCN(c2c3c(nc4cc(-c5cccc(Cl)c5)nn24)CCC3)C1 (stereo not given),"inconclusive: 35.5 µM [activator, single point]",
Cc1cccc(OCc2nc(-c3ccccn3)n[nH]2)c1,"inconclusive: 31.6 µM [activator, single point]",
Nc1c(C(=O)Nc2ccccc2)sc2nc3c(c(-c4ccco4)c12)CCCC3,"inconclusive: 17.8 µM [activator, single point]",
Cc1c(/C=N/NC(=O)c2cccnc2)c2ccccc2n1Cc1ccccc1,"inconclusive: 17.8 µM [activator, partial curve]",
O=c1[nH]c(-c2ccccn2)nc2ccccc12,"inconclusive: 31.6 µM [activator, single point]",
Cc1onc(-c2ccccc2Cl)c1C(=O)Oc1cccc2cccnc12,"inconclusive: 28.2 µM [activator, single point]",
Cc1ccc(CN2C(=O)N/C(=C/c3ccc4c(c3)n(C)c(=O)n4C)C2=O)cc1,"inconclusive: 31.6 µM [activator, single point]",
Cc1cc(SCC(=O)c2ccccc2)n2nc(C)nc2n1,,inactive: 3%
Cc1c(NC(=O)CSc2cccc3cccnc23)c(=O)n(-c2ccccc2)n1C,"inconclusive: 5.01 µM [activator, single point]",
CCN(CC)C(=O)CSc1nc(-c2cccs2)cc(-c2cccs2)c1C#N,active: 35.5 µM,
CCCSc1ncc(Cl)c(C(=O)Nc2sc3c(c2C(=O)NCCOC)CCCC3)n1,"inconclusive: 31.6 µM [activator, single point]",
Nc1c2ccccc2nc2ccccc12 (tested in a mixture with another compound),"inconclusive: 5.62 µM [activator, single point]",
